Laboratory results reported in paper PMC4336329 (PLoS ONE, 2015).
Among all 310,000 compounds or so, about 2,200 (0.71%) showed an effect of 50% or more. Effects have a minus sign here. The list shows a part of the results.

Biological target: human ether-à-go-go-related gene (hERG) potassium channel (human, UniProt Q12809)
Assay: primary screen, population patch clamp on CHO cells stably expressing hERG

Sequence of human ether-à-go-go-related gene (hERG) potassium channel (Q12809 whole entry, looked up): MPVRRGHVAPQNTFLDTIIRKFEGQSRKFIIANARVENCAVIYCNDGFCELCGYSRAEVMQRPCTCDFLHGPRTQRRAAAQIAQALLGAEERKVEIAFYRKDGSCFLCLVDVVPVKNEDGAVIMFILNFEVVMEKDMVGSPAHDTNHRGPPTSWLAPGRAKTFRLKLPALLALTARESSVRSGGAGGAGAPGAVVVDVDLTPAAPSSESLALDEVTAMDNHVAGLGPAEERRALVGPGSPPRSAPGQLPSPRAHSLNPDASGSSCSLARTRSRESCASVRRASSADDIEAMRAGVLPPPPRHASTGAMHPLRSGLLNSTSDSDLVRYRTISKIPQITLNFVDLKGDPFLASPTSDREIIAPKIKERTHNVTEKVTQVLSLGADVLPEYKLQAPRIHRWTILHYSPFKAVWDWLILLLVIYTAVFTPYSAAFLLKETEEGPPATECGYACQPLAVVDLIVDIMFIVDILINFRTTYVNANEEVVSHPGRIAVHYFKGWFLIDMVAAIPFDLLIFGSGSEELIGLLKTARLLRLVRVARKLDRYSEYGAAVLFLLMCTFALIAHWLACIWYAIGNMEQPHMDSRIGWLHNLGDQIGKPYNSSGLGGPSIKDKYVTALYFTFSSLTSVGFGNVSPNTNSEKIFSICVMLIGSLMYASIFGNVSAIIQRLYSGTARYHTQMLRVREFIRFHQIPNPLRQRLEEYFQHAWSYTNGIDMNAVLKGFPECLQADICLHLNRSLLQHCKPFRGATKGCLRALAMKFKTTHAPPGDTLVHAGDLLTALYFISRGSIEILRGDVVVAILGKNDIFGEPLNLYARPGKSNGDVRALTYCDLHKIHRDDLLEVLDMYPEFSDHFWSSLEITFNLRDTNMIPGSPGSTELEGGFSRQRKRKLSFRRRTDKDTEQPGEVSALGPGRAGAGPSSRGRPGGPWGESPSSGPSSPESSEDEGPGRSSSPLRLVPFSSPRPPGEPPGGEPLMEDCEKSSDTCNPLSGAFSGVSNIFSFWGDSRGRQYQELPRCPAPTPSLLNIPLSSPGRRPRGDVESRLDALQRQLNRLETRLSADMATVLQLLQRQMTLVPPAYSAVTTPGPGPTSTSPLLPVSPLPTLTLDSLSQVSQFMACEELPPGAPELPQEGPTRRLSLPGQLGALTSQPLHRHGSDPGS

Row | SMILES | hERG current change (%, negative = inhibition) at 1uM [%]
1 | CCS(=O)(=O)Nc1ccc(C2=NN(C(C)=O)C(c3cccs3)C2)cc1 (stereo not drawn) | 7.09
2 | CCOC(=O)COn1c2c(c3c4no[n+]([O-])c4ccc31)CCCC2 | 8.52
3 | O=C(N/N=C/c1cccnc1)c1cccc(Br)c1 | 16.2
4 | CCOc1cccc(C(=O)Nc2ccc(N(CC)CC)cc2)c1 | -1.06
5 | O=C(CCN1C(=O)C2C3C=CC(C3)C2C1=O)N1CCN(c2ccccn2)CC1 (stereo not drawn) | -1.12
6 | CCC1=NN(C(=O)Cc2ccc(OC)c(OC)c2)C(O)(C(F)(F)F)C1 (stereo not drawn) | 19.9
7 | Cc1ccc(C)c(NC(=O)CCc2nnc3ccc(NCc4ccco4)nn23)c1 | 22.2
8 | S=C(Nc1ccccc1)Nc1cc(Cl)ccc1Oc1ccccc1 | 2.12
9 | O=C(CCl)Nc1ccccc1Sc1ccccc1 | -7.81
10 | COc1ccc(Nc2nc(C(F)(F)F)nc(C)c2C#N)cc1 | 8.84
11 | COc1ccccc1OCc1cc(-c2ccccc2)no1 | 5.68
12 | Cc1ccccc1C1c2[nH]c3ccccc3c2C[C@H]2C(=O)N(C3CC3)CC(=O)N12 (stereo partly drawn) | 20
13 | CC(=O)c1sc(NC(=O)c2ccc(C(C)(C)C)cc2)nc1C | -7.37
14 | CCOC(=O)NCc1ccc(Cl)c(Cl)c1 | -0.0645
15 | O=C(O)CC1C(=O)NCCN1CCCc1ccccc1 (stereo not drawn) | 6.57
16 | Cc1ccc(Cn2c(SCCN3CCCCC3)nc3c2c(=O)[nH]c(=O)n3C)cc1 | -77.5
17 | CN(C(=O)c1sc2nc(N3CCOCC3)c3c(c2c1N)CCCC3)c1ccccc1 | 10.4
18 | CCOC(=O)c1cc(-c2ccccc2)n(CC(=O)Nc2ccc(OC)c(OC)c2)c1C | 4.12
19 | Cc1cc(NC(=O)c2ccc(F)cc2F)n(-c2nc3ccccc3[nH]2)n1 | 20.2

Row | SMILES | hERG current change (%, negative = inhibition) at 1uM [%]
20 | O=C(NCCc1ccc(Cl)cc1)C(=O)c1c[nH]c2ccccc12 | 7.93
21 | Cc1ccc2[nH]c(=O)c(C(c3nnnn3CC3CCCO3)N3CCc4ccccc4C3)cc2c1 (stereo not drawn) | -1.99
22 | COc1cc2c(C)nc3c(c(C)nn3-c3ccccc3)c2cc1OC | 9.71
23 | CCCN(CC(=O)Nc1ccccc1Br)CC(=O)Nc1ccc(F)c(F)c1F | 3.83
24 | CCN1CCN(c2ccc(N)cc2C)CC1.Cl | 6.19
25 | CN=c1sc2ccccc2n1CC(O)c1ccccc1 (stereo not drawn) | 11.5
26 | O=C(CSc1nnc(Cc2ccccc2)o1)c1ccc2c(c1)OCO2 | 1.33
27 | Cc1nn2c3ccccc3n(Cc3ccccc3)c2nc1=O | 11.5
28 | OCCOCCn1c(CCNc2nc(-c3ccc(Cl)cc3)cs2)nc2cc(Cl)c(Cl)cc21 | 8.6
29 | O=S(=O)(c1ccccc1)c1nc(NCc2ccccc2)sc1Cl | 4.21
30 | CCOC(=O)N1CCN(C(=O)c2cn(CCOC)c(=O)c3c2c2ccccc2n3C)CC1 | 13.3
31 | CN(Cc1nc(-c2cnccn2)no1)C1CC(C)(C)NC(C)(C)C1 | 11.1
32 | O=C(COn1nnc2ccccc21)NCC1CCCCC1 | 14.6
33 | O=C(O)c1cc(-c2ccc(-c3ccc(F)cc3)o2)nc2ccccc12 | 5.79
34 | Cc1ccc(NC(=O)CN2C(=O)N/C(=C/c3ccc(C)s3)C2=O)cc1 | 3.04
35 | CC(C)CNC(=O)COC(=O)c1c2c(nc3ccccc13)/C(=C/c1cccs1)CC2 | 7.22
36 | N#Cc1ccc(NC(=O)CSc2n[nH]c(=O)n2C2CC2)cc1 | 6.72
37 | CC(C)C[C@@H](CN(N=O)[C@@H](Cc1ccccc1)CN(C)N=O)N(CCc1ccccc1)N=O.[Na+] | -0.916
38 | CCC(C)NCc1ccc(C(=O)OC)o1.Cl (stereo not drawn) | 21.6

Row | SMILES | hERG current change (%, negative = inhibition) at 1uM [%]
39 | CNc1ccccc1C(=O)OCC(=O)N(CCOC)c1c(N)n(CC(C)C)c(=O)[nH]c1=O | 14.4
40 | N/C(=N\OC(=O)c1ccc2c(c1)OCO2)c1ccc(Br)cc1 | 8.11
41 | O=C1CCCN1C(=O)COc1ccc([N+](=O)[O-])cc1 | 6.05
42 | O=C(C[n+]1ccc2ccccc2c1)c1ccc(NC(=O)c2ccccc2)cc1.[Br-] | 10.8
43 | CCN(CC1CCCN(CCc2cccc(F)c2)C1)C(=O)c1ccc(CSC)o1 (stereo not drawn) | -52
44 | Cc1ccc2cccc(NC(=S)NC(=O)c3ccn(C)n3)c2n1 | 14.4
45 | Cn1c(SCc2cccc(F)c2)nnc1-c1ccncc1 | 20.2
46 | COc1ccc(C2CC(c3cccs3)=NN2c2ccc(F)cc2)cc1OC (stereo not drawn) | 9.8
47 | CCOC(=O)c1ccc(N=C2SC(C(=O)Nc3ccc(C(=O)O)cc3)CC(=O)N2Cc2cccs2)cc1 (stereo not drawn) | 10.7
48 | O=C(O)CSCC(=O)NC1CCCc2ccccc21 (stereo not drawn) | 11.4
49 | CCCC(C)NC(=O)c1ccc2[nH]c3c(c2c1)CC(C)CC3 (stereo not drawn) | 7.87
50 | COC(=O)c1ccccc1NC(=O)COC(=O)C1CCCCC1 | 7.08
51 | O=C(CCNS(=O)(=O)c1cccc2nonc12)NC1CCCc2ccccc21 (stereo not drawn) | 10.2
52 | O=c1[nH]c(-c2ccccc2)nn1-c1ccc(Br)cc1Br | 11.3
53 | Cc1ccc(Cl)cc1S(=O)(=O)N1CCC(C(=O)NC2CCN(Cc3ccccc3)CC2)CC1 | -66.1
54 | Cc1cc(NC(=O)CN2CCCCC2C)no1.O=C(O)C(=O)O (stereo not drawn) | 12.5
55 | CCOC(=O)C1CCCN(S(=O)(=O)c2cc3[nH]c(=O)c(=O)[nH]c3cc2C)C1 (stereo not drawn) | 11.3
56 | CC1CCN(c2nc3c(c(=O)[nH]c(=O)n3C)n2Cc2ccccc2)CC1 | 9.5
57 | Cc1c(NC(=O)C(C)N(c2ccccc2)S(C)(=O)=O)c(=O)n(-c2ccccc2)n1C (stereo not drawn) | 14.9
